Data as given in article PMC6212790.
Some of the results follow. At the low end of the ranking the order means little.
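Note: rank score from −0.5 (least bound) to 0.5 (best bound).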

What follows are sequences tested against T1, GST-Rok (full length) (UniProt O34857) (assay: protein binding microarray). Details: Rok is a gene silencer of Bacillus subtilis; high values mean tight binding; most listed sequences are background and not binding sites; double strand, one strand shown.
T1 sequence: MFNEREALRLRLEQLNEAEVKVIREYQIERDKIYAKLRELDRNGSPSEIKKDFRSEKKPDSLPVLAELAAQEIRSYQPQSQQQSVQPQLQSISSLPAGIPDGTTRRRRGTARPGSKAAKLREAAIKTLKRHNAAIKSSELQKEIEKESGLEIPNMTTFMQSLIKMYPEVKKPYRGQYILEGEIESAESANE
Sequence CCGGGGCG has a binding signal of -0.417 E-score. With AAATGCGA the binding signal was 0.144 E-score. In the case of AATTAAAT, the binding signal is reported as 0.236 E-score. Sequence TCGTAGCA has a binding signal of 0.0704 E-score. AAACAGTT gave a binding signal of 0.177 E-score. Work on CCTAAGCC yielded a binding signal of -0.248 E-score. With GAAACAAC the binding signal was 0.0741 E-score. In the case of CATTAGTA, the binding signal is reported as 0.227 E-score. For ATATCCGC, the binding signal was 0.1 E-score. AAACGATT showed a binding signal of 0.0613 E-score. Work on AAACGGCG yielded a binding signal of 0.0231 E-score. Work on CAAACCCG yielded a binding signal of -0.233 E-score. With CAGTCAGG the binding signal was -0.231 E-score. With ATTTGTTG the binding signal was 0.1 E-score. For GCCTTGAC, the binding signal was -0.284 E-score. GAGGAAGC showed a binding signal of -0.0496 E-score. GTCGGCCA showed a binding signal of -0.225 E-score. GGATAGTA was tested, and the binding signal was 0.208 E-score. Sequence AGTGGTAA has a binding signal of 0.262 E-score. CGGAAGAG gave a binding signal of -0.0941 E-score. With ATGCGCCC the binding signal was -0.248 E-score. ATTGGTGG showed a binding signal of -0.0729 E-score. Sequence GCGCGCTA has a binding signal of 0.316 E-score. ACACACGA was tested, and the binding signal was 0.00147 E-score. For ACAGGGGG, the binding signal was -0.379 E-score. CGCCTGAG was tested, and the binding signal was -0.19 E-score. In the case of AAAGACTG, the binding signal is reported as -0.154 E-score. For AAGTTACA, the binding signal was 0.18 E-score. ACGAGCGG was tested, and the binding signal was -0.182 E-score. Sequence CCGAAGAA has a binding signal of 0.164 E-score. For AGATCGAA, the binding signal was 0.107 E-score. TGGTAACA showed a binding signal of 0.117 E-score. AAATAGAT was tested, and the binding signal was 0.263 E-score. With CCAGGAGG the binding signal was -0.414 E-score. CCCGCTCC showed a binding signal of -0.219 E-score. Work on AACCACAT yielded a binding signal of 0.0333 E-score. In the case of CATATTCC, the binding signal is reported as -0.0313 E-score. CTCCCCAC gave a binding signal of -0.41 E-score. Sequence AAGGCAAA has a binding signal of -0.039 E-score. With GCTCCAAC the binding signal was -0.343 E-score. In the case of ACTAATAG, the binding signal is reported as 0.227 E-score. With ACACGCAA the binding signal was -0.00319 E-score. With AGAGGGGC the binding signal was -0.381 E-score. In the case of CACAGCCA, the binding signal is reported as 0.0481 E-score. CAGTCAAC was tested, and the binding signal was -0.101 E-score. In the case of GCAGGGGC, the binding signal is reported as -0.302 E-score. AAACTATA showed a binding signal of 0.396 E-score. With ACTATACA the binding signal was 0.322 E-score. ACAATATA gave a binding signal of 0.298 E-score. With AACAAGAT the binding signal was 0.147 E-score. ACGGGGTA showed a binding signal of -0.0246 E-score. ATGAGAAT was tested, and the binding signal was 0.201 E-score. CCAAACCG was tested, and the binding signal was -0.121 E-score. With CACGAGAC the binding signal was -0.124 E-score. In the case of GGATGTTA, the binding signal is reported as 0.0229 E-score. Work on CGCTGGAC yielded a binding signal of -0.23 E-score. AACCAATC showed a binding signal of 0.226 E-score. Work on CGCAACAG yielded a binding signal of -0.148 E-score. In the case of GTATATAA, the binding signal is reported as 0.278 E-score. AGGTCAGA was tested, and the binding signal was -0.156 E-score. With CAAGGGCC the binding signal was -0.262 E-score. CCCACGGC gave a binding signal of -0.347 E-score. AAGGGTAG was tested, and the binding signal was -0.028 E-score. For ACGCACCG, the binding signal was -0.165 E-score. CCTGCAGG gave a binding signal of -0.221 E-score. Work on ATCTACGC yielded a binding signal of 0.188 E-score. For AGGGAACA, the binding signal was -0.0509 E-score. Sequence CCGTCTCG has a binding signal of -0.25 E-score. Sequence AACGCTTG has a binding signal of -0.102 E-score. ACTTAGCA was tested, and the binding signal was 0.104 E-score. Sequence ACTCAACC has a binding signal of 0.0616 E-score. In the case of CGCTCAAC, the binding signal is reported as -0.00321 E-score. In the case of GGACCTGA, the binding signal is reported as -0.143 E-score. With GGGGATAA the binding signal was -0.114 E-score. Sequence CGCTGTTC has a binding signal of -0.0912 E-score. Sequence CCGACTGC has a binding signal of -0.251 E-score. Work on CAAATTTG yielded a binding signal of 0.127 E-score. Work on GGCGCGAA yielded a binding signal of -0.18 E-score. Sequence CCCCGCCA has a binding signal of -0.429 E-score. ACCAATAA gave a binding signal of 0.299 E-score. Sequence ACCATAGC has a binding signal of -0.089 E-score. TCTCGTCA showed a binding signal of -0.18 E-score. In the case of GGCTGTTA, the binding signal is reported as -0.0839 E-score. AAGATTAC gave a binding signal of 0.0411 E-score. AATCCGCA gave a binding signal of -0.0293 E-score. Work on CGGCTAGC yielded a binding signal of -0.192 E-score. With AAACACTC the binding signal was 0.048 E-score. In the case of ACGAATCT, the binding signal is reported as 0.189 E-score. AAGAATAG gave a binding signal of -0.082 E-score. Work on ACTGACCG yielded a binding signal of 0.106 E-score. AATTGACT was tested, and the binding signal was 0.16 E-score. GCCGTTAA gave a binding signal of -0.0418 E-score. Work on GCAGAGAA yielded a binding signal of -0.0153 E-score. For CGAAGCCG, the binding signal was -0.291 E-score. TCTGCGAA showed a binding signal of 0.0783 E-score. For AAAATTGG, the binding signal was 0.123 E-score. With ACACATGT the binding signal was -0.0201 E-score. Sequence GAATTAAA has a binding signal of 0.116 E-score. Work on GCCAACGA yielded a binding signal of -0.11 E-score. Sequence GAAAAAAC has a binding signal of 0.0889 E-score. With TAGCCCTA the binding signal was 0.0605 E-score. CAAGTCCG showed a binding signal of -0.103 E-score. With CGACCATA the binding signal was 0.0133 E-score. ATATGGCG was tested, and the binding signal was 0.0102 E-score. For AAAACGTC, the binding signal was -0.00524 E-score. In the case of AGGGCATA, the binding signal is reported as -0.0488 E-score. Work on AAATTAGA yielded a binding signal of 0.211 E-score. Sequence GAAGTGGA has a binding signal of 0.00673 E-score. AGCTAGCC showed a binding signal of -0.0428 E-score.
